The text below walks through data of the supplement of paper PMC12645437, “Orthogonal IMiD-Degron Pairs Induce Selective Protein Degradation in Cells” (ACS Chemical Biology, 2025).

The list shows a part of the results.
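Also: jurkat cells carrying a lentiviral library of mutant zinc finger degrons fused to EGFP plus mCherry, mCherry+ cells FACS sorted, degron abundance counted by next-generation sequencing.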

The assay has as its target no compound (DMSO). Briefly: log2 fold change of degron read counts, EGFP-low vs EGFP+ sorted cells; higher = lower degron-EGFP level without compound (poor expression or instability). To be noted: compound: DMSO control; 18 h.
For the sequence FACPVCGAAFTQKGNLLRHIKL, the “log2 fold change of degron read counts” value is -0.357.

As to FACNICGAKFTQKGNLLRHIKL, the “log2 fold change of degron read counts” value is -0.554.

For the sequence FRCEVCGAHFTQKGNLLRHIKL, the “log2 fold change of degron read counts” value is -0.866. The same measure for FMCEQCGAIFTQKGNLLRHIKL: -0.358.

Consider FMCSVCGHEFTQKGNLLRHIKL, for which the “log2 fold change of degron read counts” value is -1.62.

Consider FSCNQCGHEFTQKGNLLRHIKL, for which the “log2 fold change of degron read counts” value is -0.735. The figure for FQCPQCGALFTQKGNLLRHIKL is -0.538; for FWCEICGACFTQKGNLLRHIKL it is -0.378.

In the case of FACNQCGRVFTQKGNLLRHIKL, the “log2 fold change of degron read counts” value turned out to be 0.209. The figure for FVCNQCGRHFTQKGNLLRHIKL is -0.704; for FGCEICGALFTQKGNLLRHIKL it is -0.752; for FDCPVCGAYFTQKGNLLRHIKL it is -0.379. Turning to FKCEICGRFFTQKGNLLRHIKL, the “log2 fold change of degron read counts” value is -1.65. The same measure for FGCSVCGHIFTQKGNLLRHIKL: 1.02. The figure for FDCEICGHEFTQKGNLLRHIKL is -1.19. The figure for FLCPICGRNFTQKGNLLRHIKL is -0.237; for FLCEICGAEFTQKGNLLRHIKL it is -2.74. In the case of FWCDVCGASFTQKGNLLRHIKL, the “log2 fold change of degron read counts” value is -0.493.

With FTCSVCGHYFTQKGNLLRHIKL, the “log2 fold change of degron read counts” value came out at 0.0416. With FYCPVCGAHFTQKGNLLRHIKL, the “log2 fold change of degron read counts” value is 0.556. The same measure for FWCPQCGARFTQKGNLLRHIKL: 0.487. The figure for LMCPICGFICTQKGNLLRHIKL is 1.7; for FFCPICGHKFTQKGNLLRHIKL it is -0.263; for FACNQCGRWFTQKGNLLRHIKL it is 1.06. For FMCEICGRIFTQKGNLLRHIKL, the “log2 fold change of degron read counts” value is -0.0639.

On to FVCEVCGASFTQKGNLLRHIKL, for which the “log2 fold change of degron read counts” value was -1.47. The figure for FHCEQCGAKFTQKGNLLRHIKL is -1.86; for FMCPICGAFFTQKGNLLRHIKL it is 0.437.

Turning to FICEQCGAYFTQKGNLLRHIKL, the “log2 fold change of degron read counts” value was -0.127. Take FYCEQCGAQFTQKGNLLRHIKL: the “log2 fold change of degron read counts” value was -0.375. Take FGCEICGAMFTQKGNLLRHIKL: the “log2 fold change of degron read counts” value is -0.821. The same measure for FWCPICGAEFTQKGNLLRHIKL: 0.893. Regarding LECPICGFPCTQKGNLLRHIKL, the “log2 fold change of degron read counts” value was 0.234. FSCNQCGATFTQKGNLLRHIKL: the “log2 fold change of degron read counts” value is -0.565. Turning to FHCNQCGRYFTQKGNLLRHIKL, the “log2 fold change of degron read counts” value stood at 0.805. For FNCPICGRPFTQKGNLLRHIKL, the “log2 fold change of degron read counts” value was -0.21.

Turning to FVCPQCGACFTQKGNLLRHIKL, the “log2 fold change of degron read counts” value was -0.984.

On to FVCNQCGHKFTQKGNLLRHIKL, for which the “log2 fold change of degron read counts” value was -1.34. The same measure for LDCPICGFYCTQKGNLLRHIKL: 1.09. Turning to FSCDICGAKFTQKGNLLRHIKL, the “log2 fold change of degron read counts” value is -0.896.

Consider FQCDICGATFTQKGNLLRHIKL, for which the “log2 fold change of degron read counts” value was -1.67. The figure for FMCEICGHFFTQKGNLLRHIKL is -0.594; for FACEICGHRFTQKGNLLRHIKL it is -1.85; for LKCPICGFHCTQKGNLLRHIKL it is 0.11. The same measure for FMCNQCGASFTQKGNLLRHIKL: -1.05. The figure for FDCEICGHNFTQKGNLLRHIKL is -1.08; for FLCDQCGAFFTQKGNLLRHIKL it is -1.31. Turning to LFCEICGFECTQKGNLLRHIKL, the “log2 fold change of degron read counts” value is -0.92. Turning to FGCPQCGAQFTQKGNLLRHIKL, the “log2 fold change of degron read counts” value was -0.996.

As to FHCPVCGAVFTQKGNLLRHIKL, the “log2 fold change of degron read counts” value is -0.224.
